# Test results from patent publication US20180327501A1 (CARSGEN THERAPEUTICS, published 2018).
# B1: chimeric antigen receptor Y022-28BBZ (scFv(EGFR)-CD28a-CD28b-CD137-CD3 zeta) on T lymphocytes (other)
# chain: DIQMTQSPSSLSASVGDRVTITCHASQDINVNIGWLQQKPGKAFKGLIYHGKNLEDGVPSRFSGSGSGTDFTLTISSLQPEDFATYYCNQYENIPLTFGQGTKVEIKRGGGGSGGGGSGGGGSDVQLVESGGGLVQPGGSLRLSCAVSGYSITSDYAWNWIRQAPGKGLEWLGYISYRGRTQYNPSLKSRISITRDNSKNTFFLQLNSLRAEDTAVYYCARMGKNWDYWGQGTLVTVSSTTTPAPRPPTPAPTIASQPLSLRPEACRPAAGGAVHTRGLDFACDFWVLVVVGGVLACYSLLVTVAFIIFWVRSKRSRLLHSDYMNMTPRRPGPTRKHYQPYAPPRDFAAYRSKRGRKKLLYIFKQPFMRPVQTTQEEDGCSCRFPEEEEGGCEL[about 120 residues skipped]
# B2: chimeric antigen receptor Y022-28Z (scFv(EGFR)-CD28a-CD28b-CD3 zeta) on T lymphocytes (other)
# chain: DIQMTQSPSSLSASVGDRVTITCHASQDINVNIGWLQQKPGKAFKGLIYHGKNLEDGVPSRFSGSGSGTDFTLTISSLQPEDFATYYCNQYENIPLTFGQGTKVEIKRGGGGSGGGGSGGGGSDVQLVESGGGLVQPGGSLRLSCAVSGYSITSDYAWNWIRQAPGKGLEWLGYISYRGRTQYNPSLKSRISITRDNSKNTFFLQLNSLRAEDTAVYYCARMGKNWDYWGQGTLVTVSSTTTPAPRPPTPAPTIASQPLSLRPEACRPAAGGAVHTRGLDFACDFWVLVVVGGVLACYSLLVTVAFIIFWVRSKRSRLLHSDYMNMTPRRPGPTRKHYQPYAPPRDFAAYRS[about 120 residues skipped]
# Legend:
# [1] = biological target: EGFRvIII on U87-EGFRvIII cells (human, UniProt P00533); test: cell-based or functional assay
# [2] = biological target: EGFR on the cell surface (human, UniProt P00533); test: cell-based or functional assay
Binder,"Cytotoxicity % (LDH release, 18 h), U87-EGFRvIII target cells, effector target ratio 1:1 [1] [%]","Cytotoxicity % (LDH release, 18 h), U87-EGFRvIII target cells, effector target ratio 1:3 [1] [%]","Cytotoxicity % (LDH release, 18 h), U87-EGFRvIII target cells, effector target ratio 3:1 [1] [%]","Cytotoxicity % (LDH release, 18 h), A431 target cells, effector target ratio 1:1 [2] [%]","Cytotoxicity % (LDH release, 18 h), A431 target cells, effector target ratio 1:3 [2] [%]","Cytotoxicity % (LDH release, 18 h), A431 target cells, effector target ratio 3:1 [2] [%]","Cytotoxicity % (LDH release, 18 h), CAL27 target cells, effector target ratio 1:1 [2] [%]","Cytotoxicity % (LDH release, 18 h), CAL27 target cells, effector target ratio 1:3 [2] [%]","Cytotoxicity % (LDH release, 18 h), CAL27 target cells, effector target ratio 3:1 [2] [%]","Cytotoxicity % (LDH release, 18 h), K2 target cells, effector target ratio 1:1 [2] [%]","Cytotoxicity % (LDH release, 18 h), K2 target cells, effector target ratio 1:3 [2] [%]","Cytotoxicity % (LDH release, 18 h), K2 target cells, effector target ratio 3:1 [2] [%]","Cytotoxicity % (LDH release, 18 h), MDA-MB-468 target cells, effector target ratio 1:1 [2] [%]","Cytotoxicity % (LDH release, 18 h), MDA-MB-468 target cells, effector target ratio 1:3 [2] [%]","Cytotoxicity % (LDH release, 18 h), MDA-MB-468 target cells, effector target ratio 3:1 [2] [%]","Cytotoxicity % (LDH release, 18 h), RWPE-1 target cells, effector target ratio 1:1 [2] [%]","Cytotoxicity % (LDH release, 18 h), RWPE-1 target cells, effector target ratio 1:3 [2] [%]","Cytotoxicity % (LDH release, 18 h), RWPE-1 target cells, effector target ratio 3:1 [2] [%]","Cytotoxicity % (LDH release, 18 h), U87-EGFR target cells, effector target ratio 1:1 [2] [%]","Cytotoxicity % (LDH release, 18 h), U87-EGFR target cells, effector target ratio 1:3 [2] [%]",other results
B1,42,19,73,37,12,67,49,15,70,2,0.3,11,45,14,57,7,3,12,17,6,"Cytotoxicity % (LDH release, 18 h), U87-EGFR target cells, effector target ratio 3:1 [2]: 35%; Cytotoxicity % (LDH release, 18 h), U87 target cells, effector target ratio 1:1 [2]: 4%; Cytotoxicity % (LDH release, 18 h), U87 target cells, effector target ratio 1:3 [2]: 5%; Cytotoxicity % (LDH release, 18 h), U87 target cells, effector target ratio 3:1 [2]: 2%"
B2,31,9,65,24,5,45,23,8,50,0.6,2,3,23,1,41,6,4,8,16,7,"Cytotoxicity % (LDH release, 18 h), U87-EGFR target cells, effector target ratio 3:1 [2]: 25%; Cytotoxicity % (LDH release, 18 h), U87 target cells, effector target ratio 1:1 [2]: 3%; Cytotoxicity % (LDH release, 18 h), U87 target cells, effector target ratio 1:3 [2]: 1%; Cytotoxicity % (LDH release, 18 h), U87 target cells, effector target ratio 3:1 [2]: 4%"
